Over roughly 1,800 sequences, “median log2 fold change of GCK-ALFA target abundance (FLAG IP / Myc IP barcode read proportion)” has its median near 0.14; the lowest 2% begin near -0.84. The list shows a part of the results.
B1: traf2_out_6_156_2451 (protein)
chain: AAEEILARAEAEIEAAIEALAKASPERKIAEISRLAGAAYRALQALRAAGASLEELRAAAERLLETAERAAEEAGLDEDTRNLLLASLRAVADVALAEAA
B2: traf2_out_18_76_1957 (protein)
chain: APSPEERLAAAEARLAEVEERYQRAATRALEILPKVSPEQRSELMDLLADASEHLRKAKLALEEAKRTGDYEEQGALFEENLEKAEELIEKLEELVEELE
B3: traf2_out_11_169_804 (protein)
chain: EEAEKNREINDFALELNDEAVARLEEAALALAREAGLDPEEVRAIFEAHKGKSLSAVAAALIRHFRERGAEAAAEAVLALYEELKEEINKKMTEKIKELE
B4: traf2_out_8_144_2544 (protein)
chain: KLTRRELANEVANIIVELDELIKEVDEETKEVLIKARRELGRALNELAFGGKREEVAKELEEAAKYLEKAIELSKDNPEIKAKLEELLKRVKELIKQVKE
B5: traf2_out_13_95_1108 (protein)
chain: SKETAEKIMEIADKMLDEVLKLLNELLEIAKKKGKLEEEVQEAIDLAEYQSINEAIHKLKELAKKYPEFKEEFEKTIEEIEKLKREAGKEVAKIIKEEKE
B6: traf2_out_5_189_2322 (protein)
chain: SEKEKENEELRKLAKELSKKASELINELQEKGYSYEEIIEALLEKIKELPIEEARLFTGIAYSILEGIALANNDEELLKAAKEFRERSRKLIEEREKKAK
B7: traf2_out_18_3_1924 (protein)
chain: SAEELKEVSERIDEIIDEAEAKAREALDEIKARHPEAAEEVDRLRALLDAGAGPFGILEELAELAKRLGDEELAKELEEFLKEKRKELSELVEEYERLRK
B8: traf2_out_8_139_2534 (protein)
chain: EEEEEKRDEEELELVRFIMKAADEIAKIIREEEKDEERAEELSLKVYHLLGKAVANRGNEEKVNEYFDELIKYLKEKGYEKAAELAEKTREEFLEKVKEL
B9: traf2_out_20_38_2011 (protein)
chain: SEEEEEKKKEEELIKHAQEAYDEAEKWVAELKAEGKSVEEIAEEAKKRVREKLNAVGLEEEAEELIEDIDRVLDSPDAERLIVQILARADTLVFQKELQK
B10: traf2_out_4_186_2313 (protein)
chain: SEIKKARIEGLEILRNSAERLAKELKEKIEKGEKLPEEELKRYVELTVAHLKTVGLYEEAEKVEKAYEEGAPQEELLKLLYEAAELAAEKLKEKLEELKK
B11: traf2_out_18_117_1789 (protein)
chain: SEREKIIKELKEIAEKTGKAASELGKLVLEKWEELTPEEKSEAFDVLADLSEVRREAQLLIIEIEKENLPVEEAKKRLEELKKRAEKALKAAEEKIKKIK
B12: traf2_out_17_162_1594 (protein)
chain: SELEERLEEIERELEELEKELKRLKEKLKNIEKLSKEELTDLLVEASEARRRALELLERVRSLKSELPPEEYERLATRAEELAEEFQRIANAFYKKLEEM
B13: traf2_out_6_169_2483 (protein)
chain: SEEEELKKKAEEHYKTAKDLYELAKTIYEQVKKNNDLENLDNYILAMETILNAAKRHYDLAIEYLKKLGKEEEAKKVEEEKEKVTKEMEKMIEEIKKLKE
B14: traf2_out_20_3_2104 (protein)
chain: EELEKELEKELEEAIALLEKAAELADPETAAELKALRAEVEASRSLPYSDRLVKLSEVRRRVLRLAQEARAAGREELAAVLEEAAEALNKAMNLVMKIIE
B15: traf2_out_20_3_2100 (protein)
chain: SELEEELERELEEAEALLDEAAALADPETAARLAALRERVRASRELPLTDRLVELSAVRREVLELAQEARAAGREDLAATLEEAADALNRAMNLVMKLIE
B16: traf2_out_11_169_856 (protein)
chain: EEEERNRKIIEKALELNDKAKEELRKFALELAKKAGLDVAEVEKIFEKHKNSSLSALAAALIEWFKSKGKEDEAAAVEAKYDELKDKINKEMTAFLKELE
B17: traf2_out_11_169_834 (protein)
chain: EEKEKNRKINDFALEKNDEAKKKFKEYVLELAKEAGLDVEEIKKIFEENKNSSLSAIAAAVIKYFKEKGKEEEAKKVLEKYEELKEEINKKVTEKIKELE
B18: traf2_out_18_167_1878 (protein)
chain: SAELEKKLQEATDKLVELSAIRRWLRLALEALKESREKALAVLEAALKEFPDSEVLKEALKVAETKSDEELRKFLEEKIEELQKKANEEYKKLEALRKEK
B19: traf2_out_17_178_1661 (protein)
chain: SKEEKRKKISELTDELIDLAEAAADRALALAEAEGAVSPEELAALRRARRRGSATDVLALIERLIPRLPNAAALGALLDDFKAKYRELSKKIAEAYKEYE
B20: traf2_out_8_15_2560 (protein)
chain: SIEEAAEKDAEKLKKASDGDTESLIQALLGMAKAELRYAEILLEEGKKELALRTIKHARAFLKLALEEAKKSGHPNLEEIEKEAKEIEERLKEIEEKIKK
B21: traf2_out_14_166_1276 (protein)
chain: MTPEEIERIRKIVDELEPLTDKAVAEARAILAKNRGKLSPEQLAQVEALLALAARNIGSSAINALEQMAEIFKKAGLADAAAALKALADELREKLKELNK
B22: traf2_out_20_3_2215 (protein)
chain: EELRKAVEEELERVEELLEEAKPGLPEEDYEELEELLRKAREALEKDPADALVELSRLKAALLRLAQAAKAAGDEELAALLEEAAEEVNRAANLVYKLLE
B23: traf2_out_14_166_1282 (protein)
chain: MTPEEIARIRAIVDALEPLTDAAVAEAEAILEKNRSKLSPEQLARLEELLAIARRNVGSSAINALREMAEIFEKAGLAEAAAAFRALADELEARLSELNA
B24: traf2_out_18_167_1868 (protein)
chain: SEELLKKREEASDELVRLSEIRRAFLLALEALEESREKARAILEAALERLPDSEELRAALEAFDTLSDEEIRAFLESTAEELQKRMNEVYKKLEELEKEL
B25: traf2_out_13_95_1076 (protein)
chain: SAEANEKIMEIADRMLEEGEKILKELLEKVADDPEMKAAVQEALHLLEHHGINAAIHLLEKLAKENEEYKELLLEAIEKLRELKREAGREVARILKEEKE
B26: traf2_out_13_95_1047 (protein)
chain: SEETAKKIMEVADKAEEEALRLLEEALEEVADDPEAAAVLEEALRLARTRGIHEAIHLLEEARAADPEHAELFAELIEKLEEIRREAGREVAKIIKEEKE
B27: traf2_out_17_162_1500 (protein)
chain: AEAEARFARLREELERLKEELKKLEKKLPDLENMSKEELSDLLVEVSELKRRARRLAEELRRLAEETGSPEARELLEEAERLAEEAQKIANKIYKVYEKK
B28: traf2_out_20_38_2009 (protein)
chain: SEEEEEEEREEKLIEVANEAYDEAEAKVAAMKAAGKTVAEIAEAVKKEVTELLTAAGLEEEAKILVEDIDIAAKSPDAERLLVRILARAKTLVYQKELQK
B29: traf2_out_11_104_653 (protein)
chain: LTREQAREFNDFAMEARDRAHEIGAEVAKELEARGHTEEAARVRAALADPGTGISTLRNLLEELLPKLDEESRKVAEEAIERLEELQQEVSDKLNELEAK

Biological target: T1, TRAF2, Q12933
T1 chain: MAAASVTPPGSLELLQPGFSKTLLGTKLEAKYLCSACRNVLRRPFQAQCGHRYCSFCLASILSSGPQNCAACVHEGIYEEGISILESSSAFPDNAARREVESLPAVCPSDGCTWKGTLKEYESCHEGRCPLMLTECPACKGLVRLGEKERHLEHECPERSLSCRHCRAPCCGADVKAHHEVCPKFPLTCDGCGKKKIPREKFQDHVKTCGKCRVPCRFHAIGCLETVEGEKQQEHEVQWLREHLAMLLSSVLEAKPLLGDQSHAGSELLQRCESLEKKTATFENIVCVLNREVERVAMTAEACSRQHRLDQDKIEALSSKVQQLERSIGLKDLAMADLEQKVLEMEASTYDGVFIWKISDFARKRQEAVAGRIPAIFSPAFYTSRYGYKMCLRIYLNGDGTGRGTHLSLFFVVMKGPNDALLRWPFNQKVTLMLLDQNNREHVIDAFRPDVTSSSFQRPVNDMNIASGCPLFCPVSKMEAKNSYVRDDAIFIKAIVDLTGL
Assay: median log2 fold change of GCK-ALFA target abundance (FLAG IP / Myc IP barcode read proportion) (log2 ratio); each designed protein is fused to an ALFA-tag nanobody in HEK293 cells to bring the named protein to FLAG-tagged glucokinase (GCK); Myc marks an untargeted standard; higher = target protein stabilised (more abundant)
Settings: target protein: 3xFLAG-MCP-GCK-ALFA reporter; HEK293 landing pad (RPLP)
Method in brief: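 An ALFA-nanobody-fused binder library was recombined into HEK293 landing-pad cells and induced with 2 μg mL^−1 doxycycline. Cells were transfected with a plasmid expressing a FLAG-tagged target and a Myc-tagged standard. After 48 h, lysates underwent anti-FLAG and anti-Myc immunoprecipitation, and circular RNA barcodes were reverse transcribed, amplified and sequenced. Target abundance is the per-binder median log2 ratio of FLAG to Myc barcode read proportions. Barcodes needed ≥10^−7 proportion in both replicates, binders ≥3 barcodes per replicate, and a 10^−6 pseudocount was added; the two replicates were pooled.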

| Binder | median log2 fold change |
| --- | --- |
| B1 | -0.0527 |
| B2 | 0.14 |
| B3 | 0.243 |
| B4 | -0.0477 |
| B5 | -0.387 |
| B6 | -0.793 |
| B7 | 0.174 |
| B8 | 0.0335 |
| B9 | 0.294 |
| B10 | 0.151 |
| B11 | 0.171 |
| B12 | 0.129 |
| B13 | -0.339 |
| B14 | 0.296 |
| B15 | 0.276 |
| B16 | 0.182 |
| B17 | 0.0793 |
| B18 | -0.0192 |
| B19 | -0.191 |
| B20 | 0.0892 |
| B21 | 0.325 |
| B22 | 0.264 |
| B23 | 0.336 |
| B24 | 0.166 |
| B25 | -0.0844 |
| B26 | 0.0877 |
| B27 | 0.232 |
| B28 | 0.142 |
| B29 | 0.419 |

From the supplement of paper PMC12632987
